Data from publication PMC4336329 (PLoS ONE, 2015).
Out of some 310,000 compounds screened, about 14,000 (4.5%) showed an effect of 50% or more. Effects have a minus sign here. The list shows a part of the results.

target: human ether-à-go-go-related gene (hERG) potassium channel (human, UniProt Q12809); test: primary screen, population patch clamp on CHO cells stably expressing hERG
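Further: peak tail current of the secondary pulse compared with the same well before compound.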

Sequence of human ether-à-go-go-related gene (hERG) potassium channel (Q12809 whole entry, looked up): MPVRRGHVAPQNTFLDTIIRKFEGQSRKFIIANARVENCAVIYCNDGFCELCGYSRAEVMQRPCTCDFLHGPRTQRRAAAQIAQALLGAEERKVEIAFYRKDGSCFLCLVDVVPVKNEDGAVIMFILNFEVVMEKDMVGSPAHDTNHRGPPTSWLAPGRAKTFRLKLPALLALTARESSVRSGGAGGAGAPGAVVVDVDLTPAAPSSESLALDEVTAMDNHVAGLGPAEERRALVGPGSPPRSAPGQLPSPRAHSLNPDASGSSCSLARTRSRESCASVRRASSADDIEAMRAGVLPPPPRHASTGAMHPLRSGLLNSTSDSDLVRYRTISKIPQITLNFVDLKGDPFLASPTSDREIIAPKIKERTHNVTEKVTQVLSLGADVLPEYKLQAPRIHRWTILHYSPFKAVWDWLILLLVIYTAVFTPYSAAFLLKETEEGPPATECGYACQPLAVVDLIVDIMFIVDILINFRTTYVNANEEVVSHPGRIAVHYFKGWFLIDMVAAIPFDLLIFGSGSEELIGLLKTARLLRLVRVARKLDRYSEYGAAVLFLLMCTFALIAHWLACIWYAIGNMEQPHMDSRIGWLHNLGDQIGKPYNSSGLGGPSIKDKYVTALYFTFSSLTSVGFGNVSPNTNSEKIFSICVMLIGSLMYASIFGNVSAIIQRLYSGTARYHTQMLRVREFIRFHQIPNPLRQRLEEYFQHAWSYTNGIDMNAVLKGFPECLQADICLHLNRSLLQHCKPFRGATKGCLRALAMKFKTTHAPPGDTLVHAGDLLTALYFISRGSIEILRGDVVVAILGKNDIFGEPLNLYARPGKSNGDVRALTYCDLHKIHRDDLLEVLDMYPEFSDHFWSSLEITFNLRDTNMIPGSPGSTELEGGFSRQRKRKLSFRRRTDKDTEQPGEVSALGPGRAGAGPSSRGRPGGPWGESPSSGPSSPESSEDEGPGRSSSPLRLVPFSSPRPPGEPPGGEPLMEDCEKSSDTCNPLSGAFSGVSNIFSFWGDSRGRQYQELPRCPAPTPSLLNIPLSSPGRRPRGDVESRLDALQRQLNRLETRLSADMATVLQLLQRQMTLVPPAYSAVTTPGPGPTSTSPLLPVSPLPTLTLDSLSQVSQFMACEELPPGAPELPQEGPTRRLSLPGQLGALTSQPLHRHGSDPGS

Structure (SMILES) | hERG current change (%, negative = inhibition) at 10uM [%]
Cc1cccc(CNC(=O)c2cc(S(=O)(=O)N3CCOCC3)cn2C)c1 | 10.1
Cc1ccc(C(=O)NCC2CCCO2)cc1N1CCCC1=O (centres unmarked) | 6.65
CCC(Cc1ccccc1)NS(=O)(=O)c1c(C)nc2sccn2c1=O (centres unmarked) | -9.21
COC(=O)/C=C1\S/C(=N/N=C/c2ccccc2)NC1=O | 0.947
COc1ccc(C(=O)OCC(=O)NC2CC2)cc1OC | 0.962
O=C(COC(=O)CSc1cccc2cccc(Cl)c12)Nc1ncc(C(F)(F)F)cc1Cl | 1.87
Cc1occc1-c1nnc(SCC(=O)c2c(N)n(Cc3ccccc3)c(=O)n(C)c2=O)n1C | 2.25
CC1CCc2sc(C(=O)N(C)CC(=O)Nc3ccc(N4CCOCC4)cc3)cc2C1 (centres unmarked) | -24.4
CC1CCCCN1CC(=O)Nc1ccc2c(c1)OCO2.O=C(O)C(=O)O (centres unmarked) | -20.1
Nc1ccc2c(c1)Cc1cc([N+](=O)[O-])ccc1-2 | 17.8
O=C(NC1CCCC1)C(c1ccncc1)N(C(=O)Cn1nnc(-c2ccccc2F)n1)c1cccc(F)c1 (centres unmarked) | 18.4
O=C(O)c1ccccc1N1C(=O)C2C3CCC(C3)C2C1=O (centres unmarked) | 0.673
Cc1ccccc1CC1SC(N)=NC1=O (centres unmarked) | 11.9
S=c1nc(-c2ccc(Cl)cc2)[nH][nH]1 | 16.5
Cc1ccc(NS(C)(=O)=O)c(C(=O)c2ccccc2)c1 | -19.7
COc1ccccc1-c1c(C)c(C)nc(N)c1C#N | 2.84
Cc1ccc(C(=O)N2CCN(S(=O)(=O)c3ccccc3[N+](=O)[O-])C2)cc1 | -19.3
COc1cc(CC(=O)Nc2ccc(Cl)c(C(F)(F)F)c2)cc(OC)c1OC | -5.35
CC(=O)N(Cc1ccc(F)cc1)C1=C(NCCc2ccccc2)C(=O)c2ccccc2C1=O | -0.648

Structure (SMILES) | hERG current change (%, negative = inhibition) at 10uM [%]
Cc1ccc(NC(=O)CSCC(N)=O)cc1C | -0.0482
O=C1c2ccccc2OC2(C=Cc3ccccc3O2)N1Cc1ccccc1 (centres unmarked) | 6.47
CC(NC(=O)c1ccc(Cl)c(S(=O)(=O)N2CCCCCC2)c1)c1cccnc1 (centres unmarked) | -52.3
Cc1cc(C)nc(SCC(=O)Nc2ccc(S(=O)(=O)Nc3nccs3)cc2)n1 | -2.58
Nc1nc(-c2ccc(Cl)cc2)nn1C(=O)c1cccnc1 | -9.97
Cc1ccc(S(=O)(=O)Nc2ccc(N3CCOCC3)cc2)cc1 | 15.6
Cc1ccc(Cc2c(C)nc3nc(SCC(=O)NCCCN4CCCCCC4)nn3c2C)cc1 | -54.8
CC1(C)CC(=O)c2sc(NS(=O)(=O)c3ccc(Cl)cc3)nc2C1 | 12.2
CN(C)CCn1cnc2c1c(=O)n(C)c(=O)n2C.Cl | 15.9
C(=N\Nc1nc(N2CCCCCC2)nc(N2CCCCCC2)n1)/c1ccccc1 | 15.7
O=C(COC(=O)c1ccc2c(c1)S(=O)(=O)N=C1CCCCCN12)NCCc1ccc(F)cc1 | -3.75
COc1ccccc1NC(=O)c1cc([N+](=O)[O-])ccc1NCCN1C(=O)CCC1=O | -9.52
Fc1ccc(CN2CCCCCC2)c(F)c1 | 1.9
CCc1ccc(NC(=O)C2CCCN2S(=O)(=O)c2ccc3c(c2)C(C)(C)C(=O)N3C)cc1 (centres unmarked) | -51
O=C(CSc1nnc(-c2cccnc2)o1)OC1CCCCC1 | 0.805
CCCC(=O)NC(c1ccccc1OC)c1ccc2cccnc2c1O (centres unmarked) | -18
C=CCn1c(SCC(=O)Nc2ccccc2F)nnc1C(C)NC(=O)c1ccccc1F (centres unmarked) | -11.3
COc1ccc(-c2nc3ccccn3c2NCc2ccc3c(c2)OCO3)cc1 | -82.4
O=S(=O)(c1ccc(Cl)cc1)N1CCN(Cc2c[nH]c3ccccc23)CC1 | -18.8

Structure (SMILES) | hERG current change (%, negative = inhibition) at 10uM [%]
C=CCNC(=O)c1ccc(NC(=O)CC2SC(N3CCCC3)=NC2=O)cc1 (centres unmarked) | 6.78
CCN(CC)S(=O)(=O)c1ccc2nnn(O)c2c1 | 23.3
COc1ccccc1CO/N=C/NC(=O)c1c(OC)ccnc1Oc1ccc(F)cc1 | -14.5
CCOC(=O)C1=C(COC(=O)CSc2ccc(Br)cc2)NC(=O)NC1C (centres unmarked) | 6.33
Cc1c(NC(=O)C23CC4CC(CC(C)(C4)C2)C3)c(=O)n(-c2ccccc2)n1C | 13.9
O=C1N/C(=C/c2cccs2)C(=O)N1Cc1ccc(Br)cc1 | 1.79
O=C(NCCCCc1ccccc1)c1ccccc1Br | 3.94
CCOc1ccc(-c2ccc(SCc3ccccn3)nn2)cc1 | 1.15
COc1ccc(CCNC(=O)c2ccccc2C(=O)NCCc2ccc(OC)c(OC)c2)cc1OC | 3.48
Cn1nc(-c2ccccc2)cc1NC(=O)C1CCCCC1 | 7.23
Cc1noc(C)c1CSc1nc2sc(C)c(C)c2c(=O)n1C1CCCC1 | 17.7
CCCS(=O)(=O)N1CCC(C(=O)NCc2ccco2)CC1 | 13.8
CCOC(=O)C1=C(COC(=O)CCOc2ccc(OCC)cc2)NC(=O)NC1C (centres unmarked) | -6.11
COC(=O)C1=C(C)N(CCCC(=O)O)C(=O)NC1c1ccc(Br)cc1 (centres unmarked) | -17.7
O=C(Nc1cccc(NC(=O)c2cccs2)c1)c1ccco1 | 1.77
O=C(Nc1nc(-c2ccccc2)cs1)c1ccc(S(=O)(=O)N2CCc3ccccc32)cc1 | 7.9
CN(C)S(=O)(=O)c1ccc(NC(=O)CN2CCCc3ccccc32)cc1 | -5.36
COCCN(C(=O)CN1CCCc2ccccc21)c1c(N)n(Cc2ccccc2)c(=O)[nH]c1=O | -12.1
